Experiment [1] concerns the target HSPA8 (heat shock cognate 70 kDa protein) (mouse (endogenous in mouse testis)) (UniProt P63017). Briefly: condition: only in the absence of BAG5 (Bag5 KO testes); co-IP; HSPA8 IP from Bag5 KO mouse testis lysate, Western blot; IgG as negative control. (A western blot detects proteins with antibodies after separation by electrophoresis.)
Experiment [2] addresses T1, BAG5 (mouse (endogenous in mouse testis)) (UniProt Q8CI32).
T1 sequence: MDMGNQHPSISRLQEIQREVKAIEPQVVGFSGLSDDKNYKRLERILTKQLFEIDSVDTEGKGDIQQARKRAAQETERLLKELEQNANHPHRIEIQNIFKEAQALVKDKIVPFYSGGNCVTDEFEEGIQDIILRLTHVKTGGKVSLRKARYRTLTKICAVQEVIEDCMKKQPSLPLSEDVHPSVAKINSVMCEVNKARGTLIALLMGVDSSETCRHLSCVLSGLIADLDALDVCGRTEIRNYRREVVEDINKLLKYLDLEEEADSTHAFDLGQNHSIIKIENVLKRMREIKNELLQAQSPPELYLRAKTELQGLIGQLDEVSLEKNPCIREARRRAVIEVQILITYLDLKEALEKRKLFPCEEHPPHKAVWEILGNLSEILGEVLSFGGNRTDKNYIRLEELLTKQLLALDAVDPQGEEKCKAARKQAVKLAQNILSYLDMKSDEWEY
Briefly: co-IP; endogenous proteins from WT mouse testis lysate (20 mM HEPES, 150 mM NaCl, 0.5% NP-40, 1 mM DTT, pH 7.3), protein A/G magnetic beads, Western blot; IgG as negative control; in Fig. 8B lysates also treated with ATP (HSPA8-SPATA6 binding reduced).

Amino acid sequences for entries named in this document (tags omitted).
UniProt P63017: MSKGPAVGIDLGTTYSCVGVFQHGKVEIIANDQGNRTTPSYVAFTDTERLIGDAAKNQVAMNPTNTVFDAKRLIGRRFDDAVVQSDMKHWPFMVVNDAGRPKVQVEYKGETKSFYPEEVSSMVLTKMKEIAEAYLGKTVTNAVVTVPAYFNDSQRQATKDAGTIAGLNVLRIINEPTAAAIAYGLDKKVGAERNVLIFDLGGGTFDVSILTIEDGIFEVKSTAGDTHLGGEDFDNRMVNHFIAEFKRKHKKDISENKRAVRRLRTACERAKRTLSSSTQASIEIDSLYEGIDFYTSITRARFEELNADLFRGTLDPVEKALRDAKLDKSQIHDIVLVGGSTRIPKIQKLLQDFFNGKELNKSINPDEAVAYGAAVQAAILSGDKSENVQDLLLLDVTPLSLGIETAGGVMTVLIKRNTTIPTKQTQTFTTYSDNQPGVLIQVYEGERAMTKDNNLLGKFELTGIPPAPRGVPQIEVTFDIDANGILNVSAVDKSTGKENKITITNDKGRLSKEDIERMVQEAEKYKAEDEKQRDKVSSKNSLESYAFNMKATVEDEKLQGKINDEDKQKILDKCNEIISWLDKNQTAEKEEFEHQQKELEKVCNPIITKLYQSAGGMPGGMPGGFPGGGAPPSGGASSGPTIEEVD
UniProt P11142: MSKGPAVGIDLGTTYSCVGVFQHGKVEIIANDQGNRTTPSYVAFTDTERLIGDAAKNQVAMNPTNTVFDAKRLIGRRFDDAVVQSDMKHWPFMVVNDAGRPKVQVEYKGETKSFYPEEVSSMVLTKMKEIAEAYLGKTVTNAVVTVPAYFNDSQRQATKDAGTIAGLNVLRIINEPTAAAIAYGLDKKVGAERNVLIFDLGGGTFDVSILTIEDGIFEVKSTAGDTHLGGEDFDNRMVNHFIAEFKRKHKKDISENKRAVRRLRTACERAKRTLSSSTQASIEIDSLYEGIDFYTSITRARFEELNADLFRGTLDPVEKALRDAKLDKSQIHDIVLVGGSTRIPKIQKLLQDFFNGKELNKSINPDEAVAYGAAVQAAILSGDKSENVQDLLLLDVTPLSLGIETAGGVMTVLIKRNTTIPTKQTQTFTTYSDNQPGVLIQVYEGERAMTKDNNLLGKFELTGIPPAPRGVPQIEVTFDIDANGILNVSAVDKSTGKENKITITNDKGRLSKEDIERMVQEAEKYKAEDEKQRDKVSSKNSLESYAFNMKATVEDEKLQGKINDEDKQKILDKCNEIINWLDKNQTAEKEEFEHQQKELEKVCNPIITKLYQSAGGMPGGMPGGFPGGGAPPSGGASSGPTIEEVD
UniProt P51807: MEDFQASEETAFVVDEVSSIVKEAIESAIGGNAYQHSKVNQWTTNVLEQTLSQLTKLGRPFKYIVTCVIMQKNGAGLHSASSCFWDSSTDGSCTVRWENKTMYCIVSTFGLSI
UniProt P63172: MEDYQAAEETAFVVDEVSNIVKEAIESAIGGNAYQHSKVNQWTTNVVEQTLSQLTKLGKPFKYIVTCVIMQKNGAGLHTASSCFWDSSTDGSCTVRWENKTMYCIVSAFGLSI
UniProt Q99104: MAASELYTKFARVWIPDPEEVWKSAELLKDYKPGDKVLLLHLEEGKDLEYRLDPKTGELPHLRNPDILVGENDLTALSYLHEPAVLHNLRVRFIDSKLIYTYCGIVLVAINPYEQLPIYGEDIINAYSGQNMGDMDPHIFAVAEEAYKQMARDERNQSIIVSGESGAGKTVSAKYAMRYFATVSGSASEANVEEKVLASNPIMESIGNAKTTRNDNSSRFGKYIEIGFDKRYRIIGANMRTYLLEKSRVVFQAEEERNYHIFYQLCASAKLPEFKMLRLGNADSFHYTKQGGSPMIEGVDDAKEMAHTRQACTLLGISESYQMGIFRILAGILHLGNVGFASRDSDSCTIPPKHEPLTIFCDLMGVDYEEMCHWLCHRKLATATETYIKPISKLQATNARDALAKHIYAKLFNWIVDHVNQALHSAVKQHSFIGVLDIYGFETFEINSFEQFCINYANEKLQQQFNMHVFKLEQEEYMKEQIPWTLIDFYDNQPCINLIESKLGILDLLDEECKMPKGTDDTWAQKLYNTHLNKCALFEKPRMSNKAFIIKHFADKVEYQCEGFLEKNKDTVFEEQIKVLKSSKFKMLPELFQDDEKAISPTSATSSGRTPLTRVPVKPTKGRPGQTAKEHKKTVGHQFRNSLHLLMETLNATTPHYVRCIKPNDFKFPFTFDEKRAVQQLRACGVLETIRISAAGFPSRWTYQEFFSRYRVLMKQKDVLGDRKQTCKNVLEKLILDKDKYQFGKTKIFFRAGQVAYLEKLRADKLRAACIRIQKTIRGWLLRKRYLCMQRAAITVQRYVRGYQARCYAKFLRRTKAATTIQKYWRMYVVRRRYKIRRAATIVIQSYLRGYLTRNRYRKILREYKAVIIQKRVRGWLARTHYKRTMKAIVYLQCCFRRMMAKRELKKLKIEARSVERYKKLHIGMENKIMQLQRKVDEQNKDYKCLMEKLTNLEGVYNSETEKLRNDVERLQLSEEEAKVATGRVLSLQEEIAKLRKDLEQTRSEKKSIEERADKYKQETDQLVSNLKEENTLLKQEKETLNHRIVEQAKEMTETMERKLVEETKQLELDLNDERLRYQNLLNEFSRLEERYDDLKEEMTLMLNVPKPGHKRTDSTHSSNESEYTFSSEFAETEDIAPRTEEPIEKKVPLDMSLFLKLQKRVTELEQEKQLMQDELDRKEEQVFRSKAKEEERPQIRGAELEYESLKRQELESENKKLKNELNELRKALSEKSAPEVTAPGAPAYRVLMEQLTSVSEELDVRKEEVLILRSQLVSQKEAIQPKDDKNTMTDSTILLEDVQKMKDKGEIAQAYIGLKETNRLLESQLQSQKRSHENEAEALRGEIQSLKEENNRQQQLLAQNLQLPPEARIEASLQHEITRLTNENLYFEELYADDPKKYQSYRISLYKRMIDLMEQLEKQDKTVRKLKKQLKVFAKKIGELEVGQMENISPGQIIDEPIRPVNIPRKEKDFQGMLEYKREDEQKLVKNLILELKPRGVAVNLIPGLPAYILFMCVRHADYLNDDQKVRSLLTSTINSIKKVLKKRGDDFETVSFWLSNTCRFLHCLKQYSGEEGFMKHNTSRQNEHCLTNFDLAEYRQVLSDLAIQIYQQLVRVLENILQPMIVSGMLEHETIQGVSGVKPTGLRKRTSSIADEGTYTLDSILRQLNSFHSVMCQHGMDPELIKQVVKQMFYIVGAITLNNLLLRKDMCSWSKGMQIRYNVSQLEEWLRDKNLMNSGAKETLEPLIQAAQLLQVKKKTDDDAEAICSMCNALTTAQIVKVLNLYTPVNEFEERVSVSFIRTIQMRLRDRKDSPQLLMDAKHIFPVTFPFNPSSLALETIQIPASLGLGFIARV
UniProt Q9Y4I1: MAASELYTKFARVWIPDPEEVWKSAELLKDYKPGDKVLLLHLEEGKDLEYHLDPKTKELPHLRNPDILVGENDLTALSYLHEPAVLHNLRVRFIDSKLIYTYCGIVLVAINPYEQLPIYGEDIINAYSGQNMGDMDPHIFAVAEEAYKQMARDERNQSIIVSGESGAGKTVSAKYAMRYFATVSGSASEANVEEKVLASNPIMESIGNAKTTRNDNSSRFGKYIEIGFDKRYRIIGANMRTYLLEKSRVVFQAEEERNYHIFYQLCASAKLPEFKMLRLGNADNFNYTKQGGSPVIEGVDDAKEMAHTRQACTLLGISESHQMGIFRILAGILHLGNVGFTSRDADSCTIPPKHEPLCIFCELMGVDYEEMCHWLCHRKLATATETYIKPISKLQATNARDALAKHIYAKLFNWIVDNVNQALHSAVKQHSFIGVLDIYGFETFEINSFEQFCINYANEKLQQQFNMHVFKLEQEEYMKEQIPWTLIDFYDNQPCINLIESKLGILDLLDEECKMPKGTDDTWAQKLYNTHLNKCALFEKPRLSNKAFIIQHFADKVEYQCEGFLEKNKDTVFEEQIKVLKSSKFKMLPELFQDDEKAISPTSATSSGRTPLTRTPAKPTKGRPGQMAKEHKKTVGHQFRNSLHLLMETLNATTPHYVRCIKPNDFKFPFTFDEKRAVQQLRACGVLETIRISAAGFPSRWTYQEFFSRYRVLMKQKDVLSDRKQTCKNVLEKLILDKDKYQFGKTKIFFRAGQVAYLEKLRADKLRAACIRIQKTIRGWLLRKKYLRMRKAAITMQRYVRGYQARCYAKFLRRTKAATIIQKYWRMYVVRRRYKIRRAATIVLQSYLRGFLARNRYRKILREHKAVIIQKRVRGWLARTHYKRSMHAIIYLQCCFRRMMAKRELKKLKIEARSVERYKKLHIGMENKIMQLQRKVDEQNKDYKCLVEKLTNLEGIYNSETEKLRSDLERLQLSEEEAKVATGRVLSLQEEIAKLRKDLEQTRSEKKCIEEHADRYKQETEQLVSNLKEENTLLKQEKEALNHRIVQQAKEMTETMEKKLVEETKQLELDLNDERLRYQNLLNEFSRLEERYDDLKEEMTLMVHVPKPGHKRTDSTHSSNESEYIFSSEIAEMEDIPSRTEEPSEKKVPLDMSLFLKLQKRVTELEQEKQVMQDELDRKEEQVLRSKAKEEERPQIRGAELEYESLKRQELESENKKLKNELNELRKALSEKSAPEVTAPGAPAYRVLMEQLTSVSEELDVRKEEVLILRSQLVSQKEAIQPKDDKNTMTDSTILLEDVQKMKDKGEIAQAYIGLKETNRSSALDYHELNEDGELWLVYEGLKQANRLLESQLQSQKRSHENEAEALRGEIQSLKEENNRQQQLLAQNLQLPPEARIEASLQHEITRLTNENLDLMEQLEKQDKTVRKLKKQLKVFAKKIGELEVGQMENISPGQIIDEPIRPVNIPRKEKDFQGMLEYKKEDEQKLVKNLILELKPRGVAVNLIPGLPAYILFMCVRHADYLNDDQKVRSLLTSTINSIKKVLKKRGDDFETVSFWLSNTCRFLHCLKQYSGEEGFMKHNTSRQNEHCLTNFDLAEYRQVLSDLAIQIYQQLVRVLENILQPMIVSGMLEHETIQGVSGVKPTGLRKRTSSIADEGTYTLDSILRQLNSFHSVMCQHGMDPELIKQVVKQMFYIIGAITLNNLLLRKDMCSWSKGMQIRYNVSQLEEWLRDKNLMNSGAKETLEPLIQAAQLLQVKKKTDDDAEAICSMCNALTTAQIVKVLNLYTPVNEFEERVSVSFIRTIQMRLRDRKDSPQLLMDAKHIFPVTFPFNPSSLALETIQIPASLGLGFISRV

In experiment [3] the target is HSPA8 (heat shock cognate 70 kDa protein) (mouse (endogenous in mouse testis)) (UniProt P63017). The experiment is described as above.
The target of experiment [4] is HSPA8 (in HeLa cells) (human (endogenous in HeLa)) (UniProt P11142). Briefly: co-IP; HSPA8 IP from WT HeLa cells co-transfected with pCAG-BAG5 (or pCAG) and pCAG-SPATA6, Western blot; IgG as negative control.
The target is the same in experiment [5]. The experiment can be described thus: condition: only in the absence of BAG5 (BAG5 KO HeLa cells); co-IP; HSPA8 IP from BAG5 KO HeLa cells co-transfected with pCAG-BAG5 (or pCAG) and pCAG-SPATA6, Western blot; IgG as negative control.

No constants are given. Whether binding was seen depends on the method and setting. Binding seen in cells or lysates may run through a third protein. Some results given as binding are weak or reduced against the parent protein; the word gives no strength.

Regarding DYNLT1 (from UniProt P51807 1-113), the binding entry is recorded as “no binding” in experiment [1], “binds” in experiment [2] and “binds” in experiment [3].

Regarding “DYNLT1 (in HeLa cells) (from UniProt P63172 1-113)”, the figures for the binding entry in experiment [4] and in experiment [5] were “binds” and “no binding”, respectively.

With MYO5A (from UniProt Q99104 1-1853), the binding entry in experiment [1] is given as “no binding”; in experiment [2], “binds”; in experiment [3] it was “binds”.

For the substance “MYO5A (in HeLa cells) (from UniProt Q9Y4I1 1-1855)”, the results for the binding result in experiment [4] and in experiment [5] were “binds” and “no binding”, respectively.
